Whole data set: some 33,000 sequences, median “E-score (-0.5 to 0.5)” near -0.036, cut for the highest 2% near 0.37. The list shows a part of the results.

This test has as its target T1, Yer064c (UniProt P40041).
T1 sequence: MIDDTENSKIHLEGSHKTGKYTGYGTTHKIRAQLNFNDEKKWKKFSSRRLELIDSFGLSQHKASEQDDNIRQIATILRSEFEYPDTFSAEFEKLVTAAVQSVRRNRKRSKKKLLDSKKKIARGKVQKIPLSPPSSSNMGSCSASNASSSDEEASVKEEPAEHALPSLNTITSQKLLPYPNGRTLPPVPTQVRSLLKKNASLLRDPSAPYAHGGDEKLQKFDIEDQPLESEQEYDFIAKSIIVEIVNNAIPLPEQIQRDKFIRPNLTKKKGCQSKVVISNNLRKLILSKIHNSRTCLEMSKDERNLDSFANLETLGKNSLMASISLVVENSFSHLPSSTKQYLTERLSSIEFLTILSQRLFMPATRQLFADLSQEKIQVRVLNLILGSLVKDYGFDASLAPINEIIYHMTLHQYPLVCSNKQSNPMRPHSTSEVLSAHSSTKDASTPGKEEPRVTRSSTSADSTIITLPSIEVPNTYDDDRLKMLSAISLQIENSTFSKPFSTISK
The experiment in a line: PBM E-score (8-mer binding enrichment) (E-score (-0.5 to 0.5)); higher = stronger / more preferred TF binding; most listed sequences are background and not binding sites. To be noted: protein concentration: 200 nM; construct: GST-full length. As for the experimental part:
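Universal 'all 10-mer' protein binding microarrays (Agilent AMADID 015681) probed with GST-tagged S. cerevisiae TFs (full-length or DBD) made by in vitro transcription/translation (PURExpress), about 100-200 nM. Bound TF was detected with fluorescent anti-GST. Each ungapped 8-mer (which stands for itself and its reverse complement) is scored by the PBM enrichment score (E-score), a modified Wilcoxon-Mann-Whitney statistic from -0.5 to +0.5, computed with the Universal PBM Analysis Suite. Scale: above 0.35 generally sequence-specific binding.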
As to CACACAAG, the “PBM E-score” value stood at 0.144.

Consider GGCGACCA, for which the “PBM E-score” value is -0.416.

Turning to GTAGAACA, the “PBM E-score” value is -0.261.

Take GGCTGTTA: the “PBM E-score” value is -0.163.

For the sequence AATAGCCT, the “PBM E-score” value is -0.0586.

With ACAGCATG, the “PBM E-score” value was -0.047.

Regarding AGGATATA, the “PBM E-score” value was -0.00012.

For the sequence GCTTTAGA, the “PBM E-score” value is -0.0435.

Regarding CCAGTGTA, the “PBM E-score” value was -0.0872.

As to CACACATC, the “PBM E-score” value was determined as 0.192.

Turning to TTCAAAAA, the “PBM E-score” value is 0.144.

Turning to TAAGCTTA, the “PBM E-score” value amounted to 0.157.

CCATCTGA: the “PBM E-score” value stood at 0.15.

CAAGCAAA: the “PBM E-score” value is -0.206.

TGGAGACA: the “PBM E-score” value stood at 0.172.

On to GTCGGACA, for which the “PBM E-score” value was -0.0758.

In the case of TCAGTTAA, the “PBM E-score” value came out at 0.0951.

As to ACTGCATG, the “PBM E-score” value came out at 0.126.

AACGCCGC: the “PBM E-score” value was -0.324.

As to CCCTATAG, the “PBM E-score” value was -0.0183.

Turning to GTAGTAAC, the “PBM E-score” value turned out to be 0.0921.

With GATCCAAC, the “PBM E-score” value was -0.148.

With CGTTTACC, the “PBM E-score” value stood at 0.0722.

Consider CTGAGCAG, for which the “PBM E-score” value was determined as 0.0225.

Take CTTACAAC: the “PBM E-score” value was -0.0451.

CGGGTGAC: the “PBM E-score” value was 0.199.

Take GCGACGCC: the “PBM E-score” value was -0.314.

Consider AACTTCCT, for which the “PBM E-score” value worked out at 0.0478.

Take CAGTAGAA: the “PBM E-score” value was -0.0503.

CTATTCTA: the “PBM E-score” value was found to be 0.132.

For AGAATATG, the “PBM E-score” value stood at 0.0395.

Regarding GCCGTCAC, the “PBM E-score” value was -0.196.

With CACAAGGA, the “PBM E-score” value came out at 0.25.

Turning to AATTGCGG, the “PBM E-score” value was 0.0246.

Turning to GTTCGAGA, the “PBM E-score” value is -0.0119.

On to ATAAAGCC, for which the “PBM E-score” value is -0.207.

As to ACTGGGGG, the “PBM E-score” value was -0.212.

For the sequence CGATAGGC, the “PBM E-score” value was -0.172.

As to CTTCATCA, the “PBM E-score” value came out at 0.0982.

As to GCTGACGA, the “PBM E-score” value came out at 0.129.

CCCGGAGA: the “PBM E-score” value is -0.138.

For the sequence CGTGAAAA, the “PBM E-score” value is -0.0566.

In the case of GGAGGAAA, the “PBM E-score” value was -0.0699.

For the sequence GTGCTGCA, the “PBM E-score” value is -0.214.

As for GCGTGCGA, the “PBM E-score” value is -0.0939.

With ATCAGGGC, the “PBM E-score” value was -0.0445.

Take GATAACAC: the “PBM E-score” value was -0.145.

On to CAAGAATG, for which the “PBM E-score” value was determined as 0.018.

As to ACATACAC, the “PBM E-score” value is 0.0835.

Turning to AGGTATCC, the “PBM E-score” value is -0.229.

As for ATGGTGAC, the “PBM E-score” value is 0.22.

With AGGGACTA, the “PBM E-score” value stood at 0.222.

AATTCCCG: the “PBM E-score” value is -0.0557.

Turning to CAGAACTC, the “PBM E-score” value was found to be 0.0471.

AATGATGG: the “PBM E-score” value was -0.0994.

Turning to AGACAAAA, the “PBM E-score” value turned out to be 0.00377.

Turning to ATGCTGGA, the “PBM E-score” value was -0.0219.

GCTCCTCC: the “PBM E-score” value is -0.221.

Turning to CACCGCAA, the “PBM E-score” value is -0.0119.

As for GCAGCGGA, the “PBM E-score” value is -0.0986.

Regarding AAGTGACA, the “PBM E-score” value was 0.0209.

For the sequence GCACTCGC, the “PBM E-score” value was -0.158.

Consider CCACCTCA, for which the “PBM E-score” value was -0.12.

As for ACTTAGCA, the “PBM E-score” value came out at 0.0868.

For the sequence AATCTCAA, the “PBM E-score” value was 0.139.

With AACACGAC, the “PBM E-score” value was 0.139.

As for GGTGTTAC, the “PBM E-score” value is 0.219.

Consider GAGCTTCC, for which the “PBM E-score” value was -0.0369.

Take CATCCATA: the “PBM E-score” value is 0.00119.

With GGGTGTGA, the “PBM E-score” value worked out at 0.137.

As to CCTCCGCA, the “PBM E-score” value is -0.358.

Turning to GCATTGAC, the “PBM E-score” value was 0.157.

With ACAATCGG, the “PBM E-score” value was -0.0601.

Take CACAGGAA: the “PBM E-score” value is 0.0467.

With TACCCATA, the “PBM E-score” value came out at 0.229.

For GCTAGCAC, the “PBM E-score” value is -0.143.

AGATAGCC: the “PBM E-score” value is -0.0862.

As to CCCGACGC, the “PBM E-score” value is -0.059.

Consider CGCAGACC, for which the “PBM E-score” value was -0.276.

Consider ATCTTCTG, for which the “PBM E-score” value was -0.125.

For the sequence GGGATCAC, the “PBM E-score” value was -0.0848.

Take CGGCCCTC: the “PBM E-score” value was -0.331.

With AGTAACGG, the “PBM E-score” value was -0.00353.

AGGAGTAT: the “PBM E-score” value was determined as 0.00681.

In the case of CCGATAGC, the “PBM E-score” value is -0.265.

GGGATAGA: the “PBM E-score” value is -0.313.
